Test results: PubChem BioAssay AID463173 (ICCB-Longwood Screening Facility, Harvard Medical School, 2010)
The whole screen tested about 52,000 compounds, of which about 4,300 (8.3%) were called active. Rule as the data show it: active = survival mostly below about 52% (no sharp cut-off); inactive = mostly above about 56%. Some of the results follow.

These compounds were tested on DeltatarO mutant (assay: S. aureus survival, RN4220 and DeltatarO strains – OD600, teichoic acid synthesis inhibitors, primary screen (AID 463173)). Conditions: S. aureus RN4220 wild type/DeltatarO growth, OD600, 18 h, stronger effect = lower value, screened at 18.75 µg/mL (by protocol).

Structure (SMILES)	survival
CCN(CC)c1ccc(NC(=O)CN2CCN(c3ccccc3F)CC2)cc1	inactive: 75%
COC(=O)CN1C(=O)C(C)(C)c2cc(S(=O)(=O)Nc3ccc(Br)cc3F)ccc21	inactive: 90%
Cc1[nH]c2ccc(Br)cc2c1CCNC(=O)c1cc2ccccc2oc1=O	active: 32%
CCOc1ccc(C2=NC(c3cccs3)=Nc3ccc(CC)cc3N2)cc1OCC	inactive: 77%
O=S(=O)(NCCS(=O)(=O)N1CCN(c2cccc(Cl)c2)CC1)c1ccc(F)cc1	inactive: 83%
O=C(CSCc1ccccc1)Nc1nccs1	inactive: 77%
COc1ccccc1NC(=O)C1=C(C)Nc2nc(SCc3ccccc3)nn2C1c1cccc(O)c1 (stereo not given)	inactive: 49%
COCCn1c(CNC(=O)c2cccc(C)c2)nc2cccnc21	inactive: 95%
COCCNC(=O)C1CCN(Cc2cc3ccccc3n2Cc2ccc(C)cc2)CC1	inactive: 99%
COc1cc(NC(=O)C2CCN(S(=O)(=O)Cc3ccccc3)CC2)c(OC)cc1Cl	inactive: 74%
CCC(C)n1c(=O)c2sccc2n2c(CCCC(=O)NCc3ccccc3Cl)nnc12 (stereo not given)	inactive: 95%
Cc1ccc(C(=O)c2sc(Nc3ccccc3)c(S(=O)(=O)c3ccccc3)c2N)c(C)c1	inactive: 79%
Cc1cccc(N(C)S(=O)(=O)c2nnc(NC(=O)c3cccs3)s2)c1	active: 26%
Cc1cc(C)n2nc(CNC(=O)c3c(F)cccc3F)nc2n1	inactive: 81%
COc1ccc(NC(=O)c2nnn(Cc3nc(-c4cc(OC)c(OC)c(OC)c4)oc3C)c2C)cc1Cl	inactive: 140%
O=C(COc1ccc(F)cc1)Nc1nnc(S(=O)(=O)N2CCCC2)s1	active: 39%
CCCCNC(=O)C(CC)Sc1nc2ccccc2c(=O)n1Cc1ccco1 (stereo not given)	inactive: 75%
COCCCNC(=O)Cn1c(=O)n(-c2ccc(C)c(C)c2)c(=O)c2c3c(sc21)CCCCC3	inactive: 80%
CCCCOc1ccc(C(=O)N2CCCCC2CCN2CCOCC2)cc1 (stereo not given)	inactive: 84%
CC1CCC(NC(=O)c2ccc(CS(=O)(=O)c3ccc(Cl)cc3)o2)CC1 (stereo not given)	inactive: 86%
Nn1c(Cc2ccccc2)nc2cc(Cl)ccc2c1=O	inactive: 72%
CCN(CC)S(=O)(=O)c1ccc(C(=O)NCCSc2c(-c3ccc(F)cc3)[nH]c3ccccc23)cc1	inactive: 69%
Cc1ccc(-c2cn3cccnc3n2)cc1NC(=O)Nc1ccc(F)cc1	inactive: 152%

Structure (SMILES)	survival
Cc1ccc(S(=O)(=O)NNC(=S)NCC2CCCO2)cc1 (stereo not given)	inactive: 69%
COc1ccc2c(c1)c(=O)c(S(=O)(=O)c1ccc(F)cc1)cn2Cc1ccccc1Cl	inactive: 68%
CC(C)(C)OC(=O)N1CCC(c2c(C(=O)N3CCN(c4ccccn4)CC3)cnn2-c2ccc(F)cc2)CC1	inactive: 88%
O=C(Cn1ncc2c1-c1ccccc1OC2)N1CCN(c2ccccc2)CC1	inactive: 68%
COCCNC(=O)CN1C(=O)c2cccnc2Sc2ccccc21	inactive: 91%
COc1cccc2c(C)cc3nnc(SCC(=O)Nc4ccc(C)cc4)n3c12	inactive: 53%
O=C(c1ccc2c(c1)OCO2)c1cn(Cc2ccc(Cl)cc2)c2ccc(F)cc2c1=O	active: 55%
O=C(Cn1cc(SCc2c(F)cccc2Cl)c2ccccc21)N1CCCCC1	inactive: 61%
CCOc1nc(Nc2ccccc2)nc(OCC)n1	inactive: 115%
Cn1c(=O)n(Cc2ccccc2)c(=O)c2c1nc1n2CCN1c1ccccc1	inactive: 81%
CCN(CC)CCNC(=O)CN1N=C(c2ccc(OC)cc2)CCC1=O	inactive: 68%
Cc1cccn2cc(-c3cccc(NC(=O)C(C)C)c3)nc12	inactive: 59%
CC(=O)c1ccc(NC(=O)CSc2nc(-c3ccc(C)cc3)nc3c2c(=O)n(C)c(=O)n3C)cc1	inactive: 101%
CCn1c(=O)cc(OCC(=O)N2CCN(c3ccc(C)cc3)C(C)C2)c2ccccc21 (stereo not given)	inactive: 46%
CCC(=O)Nc1ccc2nc(SCCOc3ccc(C)cc3OC)sc2c1	inactive: 67%
COc1ccc(CNC(=O)c2cnc(N(C)C)nc2)cc1	inactive: 73%
CCCOc1cccc(C(=O)N(Cc2sccc2C)C2CCS(=O)(=O)C2)c1 (stereo not given)	inactive: 110%
CC(C)OCCCNC(=O)CN1C(=O)c2cccnc2Sc2ccccc21	inactive: 76%
CCOc1ccc(C(=O)N2CCc3cc(OC)c(OC)cc3C2COc2ccc3c(C)cc(=O)oc3c2)cc1OCC (stereo not given)	inactive: 57%
O=C(N1CCC(n2cnc3cccnc32)CC1)N1c2ccccc2Sc2ccccc21	inactive: 91%
CC(=O)c1ccc(NC(=O)C2CCN(S(=O)(=O)c3c(C)noc3/C=C/c3ccc(C)cc3)CC2)cc1	inactive: 69%
COc1ccc(CNC(=O)CN2C(=O)COc3ccccc32)c(OC)c1	inactive: 89%
Oc1ccccc1-c1nc2cnccn2c1Nc1ccc(Cl)cc1	active: 15%

Structure (SMILES)	survival
CC(=O)N(C)c1nc(-c2ccccc2)cs1	inactive: 80%
Cc1nc2c(c(C)nn2-c2ccccc2)c(C)c1CCC(=O)Nc1ccccc1	inactive: 74%
CCCCSc1ncc(C(=O)OCC)c(N)n1	active: 78%
Cc1ccc(NC(=O)Cn2c(=O)n(Cc3ccc(F)cc3)c(=O)c3cccnc32)cc1C	inactive: 91%
N=c1c(C(N)=O)cc2c(=O)n3ccccc3nc2n1Cc1ccccc1	inactive: 83%
O=C(Nc1ccccc1C(=O)NCc1ccccc1)c1ccco1	inactive: 57%
CCCn1ccc2c(OCC(=O)Nc3ccccc3C(=O)OCC)cccc2c1=O	inactive: 94%
O=C(CCCCn1c(=O)c2ccccc2n(Cc2ccc(F)cc2Cl)c1=O)NCCc1ccc(Cl)cc1	inactive: 72%
COC(=O)c1ccccc1NC(=O)CCCn1c(C)c2cnn(-c3ccccc3)c(=O)c2c1C	inactive: 90%
O=S(=O)(NCCc1csc(-c2cccc(F)c2)n1)c1cc(F)ccc1F	inactive: 62%
Cc1ccccc1Cn1c(SCc2ccc(C(=O)N3CCCCC3)cc2)nc2ccncc21	inactive: 76%
O=C(CSc1nc2ccccc2n1CC(=O)N1CCCC1)Nc1ccccc1	inactive: 96%
CCCOc1ccc(OC(=O)c2ccc(-c3ccc(CCC)cn3)cc2)cc1	inactive: 69%
COc1ccc(CCNC(=O)c2cc(Nc3ccccc3)nc3ccccc23)cc1OC	inactive: 129%
O=C1CCc2cc(S(=O)(=O)NCc3ccccc3)cc3c2N1CC3	inactive: 82%
COc1cc(NC(=O)CCNC(=O)Cn2ccc3ccccc3c2=O)cc(OC)c1OC	inactive: 63%
COC(=O)c1c(NC(=O)CCCOc2ccc(C)cc2)sc2c1CCCC2	active: 8%
CCn1c(C(=O)Nc2ccccc2C(=O)OC)cc2sc(Cl)cc21	active: 31%
CC1Cc2ccccc2N1C(=O)Cn1nc(-c2nccc3ccccc23)oc1=O (stereo not given)	inactive: 96%
O=C(Cc1ccc(NC(=O)N2CCCCc3ccccc32)cc1)NCc1cccc(Br)c1	inactive: 91%
CC(=O)Nc1ccc2c(c1)S(=O)(=O)c1cc(NC(C)=O)ccc1-2	inactive: 85%
COc1ccc(Cl)cc1NC(=O)Cn1c(=O)n(-c2ccc(C)cc2)c(=O)c2ccc(C(=O)NCc3ccccc3Cl)cc21	inactive: 84%
COc1ccccc1CNC(=O)Cc1c(C)c2cc3c(C)coc3c(C)c2oc1=O	inactive: 62%

Structure (SMILES)	survival
COc1ccc(CNC(=O)CC(C)CC2=NS(=O)(=O)c3ccccc3N2)cc1 (stereo not given)	inactive: 102%
Cc1ccccc1Cn1c(=O)n(Cc2ccco2)c(=O)c2sc3ccccc3c21	inactive: 118%
CCOc1ccc(S(=O)(=O)Nc2ccc3c(c2)CCCN3C(=O)c2cccs2)cc1	inactive: 79%
CCOc1ccc(CCNC(=O)C2Cc3ccccc3N2C(=O)CC)cc1 (stereo not given)	inactive: 82%
CCOC(=O)c1ccc(Nc2c(-c3ccc(OC)cc3)nc3nc[nH]n23)cc1	inactive: 105%
CCC(=O)N1CCc2cc(CNC(=O)Nc3cc(OC)c(OC)c(OC)c3)ccc21	inactive: 79%
CCN(CC)C(=O)C1=C(C)Nc2nc3ccccc3n2C1c1ccccc1F (stereo not given)	inactive: 163%
CCOC(=O)c1cc2c(=O)n3ccccc3nc2n(CCCOC)c1=NC(=O)c1c(-c2c(F)cccc2Cl)noc1C	inactive: 54%
CCOC(=O)C1CCCN(C(=O)Cn2ncc3c(C)n(Cc4ccc(Cl)cc4)c(C)c3c2=O)C1 (stereo not given)	inactive: 59%
Cc1ccc(NC(=O)c2ccc3c(O)c(S(=O)(=O)c4ccc(Cl)cc4)c(=O)[nH]c3c2)cc1	inactive: 104%
CC1=C(C#N)C(NC(=O)c2ccccc2)(C(F)(F)F)C(=O)N1 (stereo not given)	inactive: 69%
CC(C)c1ccccc1NC(=O)C(Cc1c[nH]c2ccccc12)NC(=O)OC(C)(C)C (stereo not given)	inactive: 162%
Cc1ccc(S(=O)(=O)c2nc(-c3cccs3)oc2SCc2ccc(F)cc2)cc1	inactive: 62%
Cc1cccc(N2CCN(C(=O)Cn3c(C)c4cnn(-c5ccccc5)c(=O)c4c3C)CC2)c1C	inactive: 67%
CCCCn1c(SCc2ccccc2C)nc2ccsc2c1=O	inactive: 124%
Cc1nnc(SCc2cc(=O)c3cc(F)ccc3[nH]2)n1C	inactive: 75%
CC(Oc1ccccc1)C(=O)Nc1c(C(=O)Nc2cccc(F)c2)oc2ccccc12 (stereo not given)	inactive: 63%
Cc1ccc(C)c(N2CCN(S(=O)(=O)c3cc(C(=O)Nc4ccccc4C(F)(F)F)ccc3F)CC2)c1	inactive: 69%
CCOC(=O)c1c(NC(=O)COc2ccc(Cl)cc2Cl)sc2c1CCCCC2	inactive: 56%
CCc1ccc(S(=O)(=O)Nc2cc3c(cc2C)n(C)c(=O)c(=O)n3C)cc1	inactive: 64%
CN(C)c1ccc(CNC(=O)Cn2c(-c3cccs3)cc3cc(Cl)ccc32)cc1	inactive: 96%
